Binding signal data for 172 sequences are collected here from article PMC10668032.

Some of the results follow. At the low end of the ranking the order means little.

The assay concerns the target SIX1 homeodomain (reference allele) (UniProt Q15475). The experiment in a line: universal protein binding microarray. As to conditions: Universal all-10-mer PBM (8x60K, AMADID 030236), 300 nM GST-tagged protein, Alexa Fluor 488 anti-GST; buffer, salt, pH and temperature not stated; high values mean tight binding; most listed sequences are background and not binding sites; double strand, one strand shown.
Turning to GGCGCCCC, the binding signal was -0.217 E-score.

On to AGGTTTAT, for which the binding signal stood at 0.199 E-score.

Regarding AAGGCTCT, the binding signal is -0.0956 E-score.

For ATTACTTG, the binding signal was -0.0983 E-score.

In the case of AGTGAATG, the binding signal was determined as 0.0439 E-score.

With AGAGTCCC, the binding signal is -0.182 E-score.

Regarding CATAAGAG, the binding signal was -0.0308 E-score.

On to AATGAAAG, for which the binding signal was -0.27 E-score.

For CTCCGGCC, the binding signal was -0.298 E-score.

Take ATACGGCA: the binding signal stood at 0.339 E-score.

Regarding GTTCAAGA, the binding signal was -0.136 E-score.

For the sequence CCTAACTA, the binding signal is -0.0382 E-score.

Consider ATCTCATC, for which the binding signal worked out at 0.311 E-score.

For GTCCAGAC, the binding signal was -0.205 E-score.

For the sequence ATACTAAA, the binding signal is -0.031 E-score.

In the case of AGTTCCTG, the binding signal is -0.362 E-score.

On to ATATATGC, for which the binding signal was found to be 0.289 E-score.

In the case of CTCTTACC, the binding signal was -0.0714 E-score.

Consider ACGCAGAT, for which the binding signal is 0.214 E-score.

As to GACCCGGA, the binding signal was 0.151 E-score.

On to ACTACGCT, for which the binding signal is -0.254 E-score.

In the case of GGGCCTAA, the binding signal was -0.281 E-score.

For CCAGAGTC, the binding signal was -0.205 E-score.

For the sequence GAATACAC, the binding signal is 0.176 E-score.

Turning to TAATAACA, the binding signal was -0.107 E-score.

Regarding CTTGCAAC, the binding signal was -0.187 E-score.

For CGGTAGGA, the binding signal was determined as 0.00923 E-score.

Regarding AGGATGAT, the binding signal was 0.305 E-score.

With AGTTGATC, the binding signal amounted to 0.23 E-score.

AGTTAACA: the binding signal was -0.0481 E-score.

Take CGCCTATC: the binding signal turned out to be 0.218 E-score.

In the case of CGTAGGCA, the binding signal is -0.0679 E-score.

In the case of CCGCGGCG, the binding signal was -0.0103 E-score.

CAGGTGCC: the binding signal is -0.0136 E-score.

Regarding AGGGGAGA, the binding signal was 0.0472 E-score.

Turning to AGCTTAGA, the binding signal stood at 0.131 E-score.

For CAACGATA, the binding signal was found to be 0.326 E-score.

Turning to AACGGAGT, the binding signal was -0.122 E-score.

Take AAGCTTTC: the binding signal is -0.277 E-score.

In the case of AGTTTTAC, the binding signal turned out to be 0.0471 E-score.

TATATTCA: the binding signal was 0.166 E-score.

For the sequence CGTGATTC, the binding signal is -0.028 E-score.

In the case of AGTTGCAC, the binding signal was -0.06 E-score.

For GGAATCCA, the binding signal was 0.0626 E-score.

In the case of AGTCTCGC, the binding signal came out at 0.0573 E-score.

As for CATGCGTC, the binding signal was -0.0298 E-score.

Consider AGATCTTC, for which the binding signal was 0.169 E-score.

CCTTCTAA: the binding signal amounted to 0.112 E-score.

Take GAACGGAA: the binding signal was -0.144 E-score.

Turning to CTAACCAC, the binding signal was -0.127 E-score.

Turning to CACATTTA, the binding signal is -0.218 E-score.

For CAGACCTA, the binding signal is -0.238 E-score.

For the sequence AACTGAGA, the binding signal was determined as 0.07 E-score.

For the sequence ATCAAGCA, the binding signal worked out at 0.174 E-score.

In the case of GTCAAGGA, the binding signal is -0.091 E-score.

For the sequence CCGGTGGA, the binding signal is -0.0286 E-score.

Regarding GGGAGACC, the binding signal is 0.0887 E-score.

As for GGAGGCGA, the binding signal was 0.108 E-score.

Consider GCAAGGCC, for which the binding signal is -0.263 E-score.

GGATATCA: the binding signal amounted to 0.487 E-score.

For the sequence GACTACAA, the binding signal was -0.196 E-score.

For ATTTTTGC, the binding signal was -0.128 E-score.

Take ATTCGATA: the binding signal is 0.302 E-score.

As for ACGATAAT, the binding signal stood at 0.116 E-score.

As to AGTAAATC, the binding signal is -0.115 E-score.

Consider ACAGACAC, for which the binding signal stood at 0.0849 E-score.

Regarding CGCTCGTC, the binding signal is -0.0455 E-score.

Take AACCGGAG: the binding signal is -0.0866 E-score.

Turning to TCGGGCCA, the binding signal was -0.0576 E-score.

On to ATCACAGA, for which the binding signal is 0.262 E-score.

For ACTACGTA, the binding signal came to 0.0788 E-score.

On to GTTGATAA, for which the binding signal stood at 0.123 E-score.

Take ATTTATTA: the binding signal was -0.0146 E-score.

On to CACAAGAG, for which the binding signal was -0.0821 E-score.

On to ATCTTGCC, for which the binding signal is 0.033 E-score.

On to CCTGTTAA, for which the binding signal was -0.0724 E-score.

Consider CGAGCGCC, for which the binding signal was -0.252 E-score.

As to CATGAGAA, the binding signal amounted to 0.036 E-score.

On to ATGCTCCC, for which the binding signal was -0.0837 E-score.

In the case of CGTCCCAA, the binding signal is -0.184 E-score.

On to GAGGGCAA, for which the binding signal is -0.0619 E-score.

As for CGCTCCCC, the binding signal was -0.0672 E-score.

In the case of GGTCTACA, the binding signal is -0.0375 E-score.

Consider CTCTGACA, for which the binding signal turned out to be 0.0184 E-score.

As for ACCTCTAA, the binding signal is -0.0571 E-score.

Regarding GCCCCATA, the binding signal was determined as 0.076 E-score.

Take TACGCAAA: the binding signal was -0.0349 E-score.

In the case of CAGAGCAC, the binding signal was -0.0331 E-score.

For the sequence CGACCACG, the binding signal was -0.178 E-score.

CGAACCTA: the binding signal was -0.0427 E-score.

Consider ATACGGAT, for which the binding signal came to 0.425 E-score.

Regarding CGAACTGC, the binding signal is -0.0566 E-score.

As for GACGAAAC, the binding signal is -0.174 E-score.

Consider AATGGCTA, for which the binding signal is -0.0738 E-score.

As to AATAAGGT, the binding signal was -0.109 E-score.

For AAACTTCC, the binding signal was -0.239 E-score.

Take CCGGCGAA: the binding signal was 0.0279 E-score.

For the sequence ACCCCGTC, the binding signal was 0.161 E-score.

ACCGGGTC: the binding signal was found to be 0.0882 E-score.

As to GCAACATA, the binding signal was 0.0234 E-score.

As for CCCCTAAA, the binding signal is -0.0537 E-score.

For GGTGACGA, the binding signal was -0.164 E-score.

CGGGTGGA: the binding signal worked out at 0.236 E-score.

Take ACAAAGAA: the binding signal is -0.205 E-score.

With CCCTCCAG, the binding signal amounted to 0.134 E-score.

In the case of GCAACGCC, the binding signal is -0.0673 E-score.

For GGAAAGCA, the binding signal was -0.197 E-score.

Consider AAATCAGT, for which the binding signal was -0.167 E-score.

Take CAAATTCA: the binding signal was -0.14 E-score.

For the sequence TCGAGCCA, the binding signal is -0.0373 E-score.

Take CGCTGGTA: the binding signal was found to be 0.0642 E-score.

On to CCCATTGC, for which the binding signal is -0.0557 E-score.

For the sequence ACTATGAA, the binding signal was -0.0761 E-score.

In the case of CGAGATTC, the binding signal was -0.0671 E-score.

For CGAGTAAC, the binding signal was found to be 0.033 E-score.

With TCGGTCAA, the binding signal is -0.167 E-score.

On to ATTCAGTA, for which the binding signal is -0.0364 E-score.

As for AACACGGG, the binding signal came out at 0.041 E-score.

Turning to CAAGGGGG, the binding signal stood at 0.118 E-score.

For ATAAAGTG, the binding signal was found to be 0.13 E-score.

For the sequence ACTTTGAT, the binding signal was determined as 0.0693 E-score.

As to GACACCAC, the binding signal is 0.439 E-score.

CGTAAATA: the binding signal was -0.176 E-score.

Take CCTGCTCG: the binding signal was -0.138 E-score.

As for CAAAGTCG, the binding signal is -0.266 E-score.

For the sequence ACATATCA, the binding signal was determined as 0.446 E-score.

Take AGAGAGTC: the binding signal is -0.166 E-score.

For TAGATTAA, the binding signal amounted to 0.0424 E-score.

Consider AGAGGGGA, for which the binding signal came out at 0.0764 E-score.

With AGTACAGA, the binding signal worked out at 0.0911 E-score.

On to ATCCGTCA, for which the binding signal stood at 0.148 E-score.

As to CTCCGGCA, the binding signal came to 0.0204 E-score.

Turning to TAACTATA, the binding signal is 0.0222 E-score.

In the case of GCAGCTCA, the binding signal worked out at 0.0222 E-score.

With CACACACG, the binding signal is -0.0115 E-score.

As to CCTTCACC, the binding signal is -0.101 E-score.

On to ACCGTTGC, for which the binding signal was -0.0967 E-score.

With GGCAGCGA, the binding signal was -0.0111 E-score.

AGACTACC: the binding signal was -0.0403 E-score.

For AGCACCCC, the binding signal was determined as 0.0734 E-score.

On to GACACCTA, for which the binding signal turned out to be 0.357 E-score.

As for AATGATGC, the binding signal turned out to be 0.0466 E-score.

Turning to ACAGTGAT, the binding signal stood at 0.199 E-score.

With AAGGACGA, the binding signal was -0.125 E-score.

As for ACTGACCT, the binding signal was -0.265 E-score.

CAGCACTC: the binding signal was -0.276 E-score.

AATAGGAC: the binding signal is -0.12 E-score.

For the sequence ACAAGAAA, the binding signal was -0.197 E-score.

On to TGGAACCA, for which the binding signal is -0.137 E-score.

AGAAGATG: the binding signal was 0.0521 E-score.

For ACTTGATG, the binding signal is -0.0445 E-score.

As to AGCGGGGG, the binding signal is 0.0499 E-score.

On to CTAGCTAG, for which the binding signal is -0.0497 E-score.

With AGGTCCGA, the binding signal amounted to 0.0566 E-score.

As to GAAACATC, the binding signal was -0.0537 E-score.

In the case of GGTCTGAC, the binding signal was -0.22 E-score.

With CTCTCACA, the binding signal came to 0.00104 E-score.

Regarding GGGACAAA, the binding signal is -0.175 E-score.

With ACTCTCCA, the binding signal is -0.0886 E-score.

With ATAGTGAG, the binding signal was 0.0731 E-score.

With ATACACGG, the binding signal was 0.25 E-score.

For AGGGCGAC, the binding signal was -0.0414 E-score.

For the sequence CGCGCTTC, the binding signal is -0.123 E-score.

As for GCTCCAGA, the binding signal is 0.0304 E-score.

Turning to CGGTGATC, the binding signal came to 0.351 E-score.

AGACGGAT: the binding signal worked out at 0.402 E-score.

For the sequence TAATTACA, the binding signal was -0.106 E-score.

Regarding GTACGGTA, the binding signal was 0.0824 E-score.

As for ACTTCTCG, the binding signal was -0.046 E-score.

For the sequence GAGTCCTA, the binding signal is -0.0675 E-score.

As to CTCAAGGC, the binding signal is -0.0958 E-score.

With CGGTAGTA, the binding signal is -0.0428 E-score.
